According to article PMC3473057:
No constants are given. Whether binding was seen depends on the method and setting. For some assays here: Binding seen in cells or lysates may run through a third protein. Some entries that bind do so weakly or less than the wild type.

Chains of the proteins cited; added tags and fusions are not shown. Lines headed by an entry give the natural chain unless they say otherwise; changes in a name come on top. A line that says so, or that is headed by a name, gives the form on record, which may keep a tag or linker. Residues count along the entry.
GST-Fyn-SH3 (mouse Fyn(T), Thr82-Glu148) (P39688, residues 82-148): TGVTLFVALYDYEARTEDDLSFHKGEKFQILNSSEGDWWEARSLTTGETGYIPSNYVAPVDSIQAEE
GST-Fyn-SH2 (mouse Fyn(T), Trp149-Ala257) (P39688-2, form named): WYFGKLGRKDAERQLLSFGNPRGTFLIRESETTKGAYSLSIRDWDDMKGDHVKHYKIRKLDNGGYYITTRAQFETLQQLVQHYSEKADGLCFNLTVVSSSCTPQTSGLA
GST-Fyn-SH2 R176K (P39688-2, form named): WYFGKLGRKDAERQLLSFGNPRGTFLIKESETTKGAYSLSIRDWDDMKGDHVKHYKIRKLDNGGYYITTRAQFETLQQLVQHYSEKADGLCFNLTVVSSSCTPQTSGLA
GST-rat Lyn-SH3 (Q07014, residues 63-123): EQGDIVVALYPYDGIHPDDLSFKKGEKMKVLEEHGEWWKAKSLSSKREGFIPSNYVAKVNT
GST-rat Lyn-SH2 (Q07014, residues 129-226): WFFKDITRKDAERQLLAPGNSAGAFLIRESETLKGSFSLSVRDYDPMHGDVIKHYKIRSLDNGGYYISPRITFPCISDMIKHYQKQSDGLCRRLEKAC
UniProt P00520, residues 65-119: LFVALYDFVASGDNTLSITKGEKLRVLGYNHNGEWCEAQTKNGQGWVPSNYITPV
UniProt P06241: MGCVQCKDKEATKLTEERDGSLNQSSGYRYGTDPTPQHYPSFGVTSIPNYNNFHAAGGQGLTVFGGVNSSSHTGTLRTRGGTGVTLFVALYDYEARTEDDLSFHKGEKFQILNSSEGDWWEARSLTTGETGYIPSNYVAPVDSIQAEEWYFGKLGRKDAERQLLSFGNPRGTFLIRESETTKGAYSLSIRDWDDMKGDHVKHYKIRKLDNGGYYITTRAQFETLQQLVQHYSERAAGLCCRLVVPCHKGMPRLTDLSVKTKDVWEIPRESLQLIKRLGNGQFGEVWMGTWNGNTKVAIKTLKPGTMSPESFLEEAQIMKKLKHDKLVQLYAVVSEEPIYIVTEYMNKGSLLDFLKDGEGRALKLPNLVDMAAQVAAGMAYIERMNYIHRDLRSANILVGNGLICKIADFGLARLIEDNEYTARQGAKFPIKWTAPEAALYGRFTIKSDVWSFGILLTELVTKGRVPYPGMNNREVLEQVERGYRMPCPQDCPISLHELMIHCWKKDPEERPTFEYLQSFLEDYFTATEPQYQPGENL
GST-human Fyn-SH2 (Trp149-Arg268): residues 149-268 of P06241
UniProt Q13191, residues 2-349: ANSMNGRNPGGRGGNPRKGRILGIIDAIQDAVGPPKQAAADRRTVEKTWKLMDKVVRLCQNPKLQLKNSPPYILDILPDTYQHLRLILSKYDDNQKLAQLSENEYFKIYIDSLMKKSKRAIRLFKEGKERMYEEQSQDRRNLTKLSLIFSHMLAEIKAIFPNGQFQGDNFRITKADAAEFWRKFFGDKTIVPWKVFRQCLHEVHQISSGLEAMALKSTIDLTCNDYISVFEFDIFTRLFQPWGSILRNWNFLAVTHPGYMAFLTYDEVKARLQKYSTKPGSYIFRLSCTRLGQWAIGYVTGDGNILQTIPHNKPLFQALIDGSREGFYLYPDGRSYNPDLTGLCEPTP
UniProt Q06649, residues 455-553: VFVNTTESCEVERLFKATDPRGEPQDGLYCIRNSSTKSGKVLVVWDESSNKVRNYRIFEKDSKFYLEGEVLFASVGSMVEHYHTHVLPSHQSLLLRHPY
UniProt P54100, residues 669-763: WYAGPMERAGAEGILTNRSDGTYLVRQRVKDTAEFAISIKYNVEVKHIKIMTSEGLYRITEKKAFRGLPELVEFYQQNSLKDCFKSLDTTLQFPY

Assays:
[1] = target: Myc-His tagged HCV NS5A (Con1), stably expressed in BJAB B cells (hepatitis C virus) (UniProt Q9WMX2); assay: co-IP
[2] = target: GST-Fyn-SH2 (mouse Fyn(T), Trp149-Ala257) (mouse) (UniProt P39688); assay: pull-down; only the target purified
[3] = target: GST-rat Lyn-SH3 (rat) (UniProt Q07014); assay: pull-down; 20 µg GST-fusion protein prebound to glutathione Sepharose 4B; lysate of BJAB cells stably expressing Myc-His-NS5A, untreated or treated with 100 µM pervanadate for 3 min; binding buffer 1% NP-40, 50 mM Tris pH 7.4, 150 mM NaCl, 10 mM EDTA; 90 min at 4°C; blot with anti-NS5A; only the target purified
[4] = target: GST-Fyn-SH2 R176K (mouse) (UniProt P39688); assay: as above
[5] = target: GST-c-Abl-SH3 (mouse, Leu84-Val138) (mouse) (UniProt P00520); assay: as above
[6] = target: GST-Fyn-SH2 (mouse Fyn(T), Trp149-Ala257) (mouse) (UniProt P39688); assay: as above
[7] = target: GST-Fyn-SH3 (mouse Fyn(T), Thr82-Glu148) (mouse) (UniProt P39688); assay: as above
[8] = target: GST-human Fyn-SH2 (Trp149-Arg268) (human) (UniProt P06241); assay: pull-down; GST-human Fyn-SH2; PV-treated BJAB cells expressing Myc-His-NS5A (clone 7) solubilized in the lysis buffer; blot with anti-NS5A; only the target purified
[9] = target: Fyn, endogenous in BJAB cells (human (endogenous in BJAB)) (UniProt P06241); assay: co-IP
[10] = target: GST-Cbl-b N-terminal region containing SH2 domain (human, Ala2-Pro349) (human) (UniProt Q13191); assay: pull-down; as the GST pull-down from PV-treated BJAB cells expressing Myc-His-NS5A; long exposure of the blot, data not shown; only the target purified
[11] = target: GST-mouse c-Abl SH3 domain-binding protein-2 (3BP2)-SH2 (mouse) (UniProt Q06649); assay: as above
[12] = target: GST-rat Lyn-SH2 (rat) (UniProt Q07014); assay: as above
[13] = target: GST-rat Vav1-SH2 (rat) (UniProt P54100); assay: as above
[14] = target: Myc-His tagged HCV NS5A (Con1), stably expressed in BJAB B cells (hepatitis C virus) (UniProt Q9WMX2); assay: far-Western, overlay or dot blot; NS5A immunoprecipitates from BJAB cells separated by SDS-PAGE and transferred to PVDF; membrane incubated with 2.5 µg/ml GST-Fyn-SH2 for 1 h at 4°C; detected with anti-GST; only the binder purified

For “Fyn, endogenous in BJAB cells (from UniProt P06241 1-537)”, the binding [1] was “binds”.
In the case of “HCV NS5A in Huh-7.5 cells stably harboring an HCV subgenomic replicon (from UniProt Q9WMX2 1973-2419)”, the binding [2] is reported as “binds”.
With “Myc-His tagged HCV NS5A (Con1), stably expressed in BJAB B cells (from UniProt Q9WMX2 1973-2419)” the binding [3] was “binds”, the binding [4] was “no binding” and the binding [5] was “binds”. For the same substance, the binding [6] was “binds”, the binding [7] was “binds” and the binding [8] was “binds”. The binding [9] was “binds”, the binding [10] was “binds weakly” and the binding [11] was “binds weakly”. The binding [12] was “binds weakly” and the binding [13] was “binds weakly”.
In the case of “GST-Fyn-SH2 (mouse Fyn(T), Trp149-Ala257) (from UniProt P39688-2 149-257) (domain or fragment)”, the binding [14] is reported as “binds”.
